Measured values taken from PubChem BioAssay (Tox21).
Where “and” joins values, the source holds several entries; their conditions need not be identical. Equal entries are not always repeated. This list was built around the results that the source calls inconclusive (neither active nor inactive); the mix of calls is not that of the screen. For part of these data: Where the call is inconclusive, the potency comes from a doubtful curve fit. More than one record can exist for a structure, and the calls need not agree. Calls of active or inactive are those of the source. Calls come from the whole dose curve; as a rule, active = well fitted curve in the direction sought with a large enough effect in the repeat runs; inconclusive = weak or mixed curves; inactive = no such curve, though single readings can be large; an effect the other way counts as inactive or inconclusive.

Tests used:
[1] = Caspase-3/7 induction in CHO-K1 cells by small molecules, qHTS cell viability counter screen (AID 1346979); note: nearly all actives have a fitted effect of over 35% in size; note: potency is the fitted concentration of half-maximal effect
Procedure, shortened: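 CellTiter-Fluor viability check, qHTS format: wild-type CHO-K1, 16hr compound treatment, 1hr reagent incubation, fluorescence read.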

[2] = target: Nuclear receptor subfamily 1 group I member 2 (Homo sapiens) (UniProt O75469); test: Human pregnane X receptor (PXR) small molecule agonists, qHTS assay (AID 1346982); note: nearly all actives have a fitted effect of over 35% in size; note: potency is the fitted concentration of half-maximal effect
Sequence of UniProt O75469 (O75469 whole entry, looked up): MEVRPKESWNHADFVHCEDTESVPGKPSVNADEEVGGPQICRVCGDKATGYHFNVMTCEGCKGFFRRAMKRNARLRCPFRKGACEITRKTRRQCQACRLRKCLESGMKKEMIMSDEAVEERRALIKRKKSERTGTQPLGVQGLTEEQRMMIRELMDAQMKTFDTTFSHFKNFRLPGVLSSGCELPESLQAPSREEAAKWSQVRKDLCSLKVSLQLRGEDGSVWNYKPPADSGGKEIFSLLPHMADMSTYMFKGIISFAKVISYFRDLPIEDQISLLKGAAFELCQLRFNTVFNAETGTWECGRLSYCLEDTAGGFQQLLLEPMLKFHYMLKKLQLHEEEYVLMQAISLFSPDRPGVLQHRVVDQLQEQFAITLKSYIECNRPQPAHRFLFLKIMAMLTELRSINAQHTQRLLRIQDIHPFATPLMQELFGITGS
Procedure, shortened: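 Tox21 qHTS; PXR-Luc HepG2; compounds pinned from DMSO; 24 hr, 37 C; ONE-Glo luciferase detection, 30 min room temperature.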

[3] = target: Cytochrome P450 2D6 (Homo sapiens) (UniProt P10635); test: Cytochrome P450 Family 2 Subfamily D Member 6 (CYP2D6) small molecule antagonists: luciferase reporter qHTS assay (AID 1671196); note: nearly all actives have a fitted effect of over 50% in size; note: potency is the fitted concentration of half-maximal effect; for activity change, negative = inhibition: series mostly up to about 120 µM
Sequence of UniProt P10635 (P10635 whole entry, looked up): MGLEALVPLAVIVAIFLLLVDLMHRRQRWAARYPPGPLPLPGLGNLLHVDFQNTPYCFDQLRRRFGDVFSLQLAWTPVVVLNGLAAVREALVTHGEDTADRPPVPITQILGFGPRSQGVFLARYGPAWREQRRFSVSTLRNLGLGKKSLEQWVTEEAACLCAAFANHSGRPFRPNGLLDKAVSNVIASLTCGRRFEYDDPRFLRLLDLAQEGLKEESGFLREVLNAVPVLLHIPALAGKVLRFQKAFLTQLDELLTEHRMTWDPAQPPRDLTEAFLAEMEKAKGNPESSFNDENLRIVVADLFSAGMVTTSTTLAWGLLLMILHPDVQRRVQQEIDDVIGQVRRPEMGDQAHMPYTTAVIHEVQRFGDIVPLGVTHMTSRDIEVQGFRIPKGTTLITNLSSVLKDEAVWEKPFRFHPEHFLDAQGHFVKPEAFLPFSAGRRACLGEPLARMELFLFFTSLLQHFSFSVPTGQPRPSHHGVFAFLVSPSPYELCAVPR
Procedure, shortened: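 Room-temperature luminescent CYP2D6 activity assay: compound preincubated 10 min with enzyme–substrate mix, NADPH-initiated reaction 1 h, detection reagent 20 min before reading.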

[4] = target: Cytochrome P450 2C19 (Homo sapiens) (UniProt P33261); test: Cytochrome P450 Family 2 Subfamily C Member 19 (CYP2C19) small molecule antagonists: luciferase reporter qHTS assay (AID 1671197); note: nearly all actives have a fitted effect of over 65% in size; note: potency is the fitted concentration of half-maximal effect; for activity change, negative = inhibition: series mostly up to about 120 µM
Sequence of UniProt P33261 (P33261 whole entry, looked up): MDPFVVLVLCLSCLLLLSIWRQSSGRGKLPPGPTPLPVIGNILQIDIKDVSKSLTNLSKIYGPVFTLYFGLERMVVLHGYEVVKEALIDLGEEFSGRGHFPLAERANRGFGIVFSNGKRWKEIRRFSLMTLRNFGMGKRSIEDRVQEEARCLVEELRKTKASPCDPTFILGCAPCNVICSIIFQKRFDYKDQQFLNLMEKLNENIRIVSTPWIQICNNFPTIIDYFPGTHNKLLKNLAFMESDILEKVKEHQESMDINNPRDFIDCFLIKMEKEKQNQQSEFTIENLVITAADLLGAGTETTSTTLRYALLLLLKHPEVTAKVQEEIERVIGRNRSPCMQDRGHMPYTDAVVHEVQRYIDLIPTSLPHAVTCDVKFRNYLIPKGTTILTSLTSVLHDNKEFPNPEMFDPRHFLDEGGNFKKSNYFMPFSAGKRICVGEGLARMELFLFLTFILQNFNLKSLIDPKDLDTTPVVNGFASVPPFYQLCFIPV
Procedure, shortened: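 Relative luminescence units recorded 20 min after the detection reagent stopped a 1 h, 37C CYP2C19 reaction on proluciferin substrate, which was started by NADPH regeneration following 10 min room-temperature compound preincubation; ketoconazole positive control.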

[5] = target: Cytochrome P450 1A2 (Homo sapiens) (UniProt P05177); test: Cytochrome P450 Family 1 Subfamily A Member 2 (CYP1A2) small molecule antagonists: luciferase reporter qHTS assay (AID 1671199); note: nearly all actives have a fitted effect of over 50% in size; note: potency is the fitted concentration of half-maximal effect; for activity change, negative = inhibition: series mostly up to about 120 µM
Sequence of UniProt P05177 (P05177 whole entry, looked up): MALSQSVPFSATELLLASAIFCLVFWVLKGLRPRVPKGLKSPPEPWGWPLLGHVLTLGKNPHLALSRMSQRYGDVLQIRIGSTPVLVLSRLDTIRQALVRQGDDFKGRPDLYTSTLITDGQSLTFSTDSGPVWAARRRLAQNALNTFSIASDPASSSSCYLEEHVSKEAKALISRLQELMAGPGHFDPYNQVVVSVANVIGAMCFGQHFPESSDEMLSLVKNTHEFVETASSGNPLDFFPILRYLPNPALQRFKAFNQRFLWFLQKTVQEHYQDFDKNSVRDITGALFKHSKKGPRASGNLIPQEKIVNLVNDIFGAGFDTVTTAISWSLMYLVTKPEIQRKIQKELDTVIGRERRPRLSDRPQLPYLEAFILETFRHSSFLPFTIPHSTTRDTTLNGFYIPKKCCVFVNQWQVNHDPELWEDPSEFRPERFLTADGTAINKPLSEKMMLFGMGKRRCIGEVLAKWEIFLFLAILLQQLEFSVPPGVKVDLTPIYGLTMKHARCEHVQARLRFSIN
Procedure, shortened: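 Room-temperature CYP1A2 reaction with proluciferin substrate: compounds added from DMSO, 10 min preincubation, NADPH regeneration for 1 h. Luciferin detection reagent then added; luminescence recorded as RLU.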

[6] = Caspase-3/7 induction in HepG2 cells by small molecules, qHTS cell viability counter screen (AID 1346981); note: nearly all actives have a fitted effect of over 30% in size; note: potency is the fitted concentration of half-maximal effect
Procedure, shortened: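 After a 5-hr attachment period at 37 C and 5% CO2, wild-type HepG2 cells received compounds in DMSO. Sixteen hours later CellTiter-Fluor was dispensed and the fluorescent signal quantified after a further hour.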

[7] = target: Cytochrome P450 2C9 (Homo sapiens) (UniProt P11712); test: Cytochrome P450 Family 2 Subfamily C Member 9 (CYP2C9) small molecule antagonists: luciferase reporter qHTS assay (AID 1671198); note: nearly all actives have a fitted effect of over 50% in size; note: potency is the fitted concentration of half-maximal effect; for activity change, negative = inhibition: series mostly up to about 120 µM
Sequence of UniProt P11712 (P11712 whole entry, looked up): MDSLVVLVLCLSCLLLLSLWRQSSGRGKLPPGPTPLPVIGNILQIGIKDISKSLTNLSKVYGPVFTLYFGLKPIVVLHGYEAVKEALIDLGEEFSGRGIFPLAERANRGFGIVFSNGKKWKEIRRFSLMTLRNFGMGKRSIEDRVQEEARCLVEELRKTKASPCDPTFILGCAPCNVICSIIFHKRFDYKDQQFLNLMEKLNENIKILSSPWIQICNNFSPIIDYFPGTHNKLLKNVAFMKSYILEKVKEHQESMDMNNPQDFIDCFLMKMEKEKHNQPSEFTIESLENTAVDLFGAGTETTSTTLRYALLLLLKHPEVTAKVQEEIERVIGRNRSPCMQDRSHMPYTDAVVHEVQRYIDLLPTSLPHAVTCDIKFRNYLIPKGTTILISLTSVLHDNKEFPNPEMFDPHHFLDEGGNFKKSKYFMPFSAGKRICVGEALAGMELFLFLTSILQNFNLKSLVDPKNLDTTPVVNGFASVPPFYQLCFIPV
Procedure, shortened: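 Enzyme-substrate mix preincubated with compound 10 min at room temperature; reaction started with NADPH regeneration solution, 1 h 37C. Luminescent luciferin product read after 20 min detection reagent.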

[8] = target: Voltage-gated inwardly rectifying potassium channel KCNH2 (Homo sapiens) (UniProt Q12809); test: Human Ether-a-go-go-Related Gene (hERG) channel small molecule antagonists: fluorescence cell-based qHTS assay (AID 1671200);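 note: hERG-expressing U2OS cells given a thallium stimulus after FluxOR II dye loading; series mostly up to about 77 µM; nearly all actives have a fitted effect of over 50% in size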
Sequence of UniProt Q12809 (Q12809 whole entry, looked up): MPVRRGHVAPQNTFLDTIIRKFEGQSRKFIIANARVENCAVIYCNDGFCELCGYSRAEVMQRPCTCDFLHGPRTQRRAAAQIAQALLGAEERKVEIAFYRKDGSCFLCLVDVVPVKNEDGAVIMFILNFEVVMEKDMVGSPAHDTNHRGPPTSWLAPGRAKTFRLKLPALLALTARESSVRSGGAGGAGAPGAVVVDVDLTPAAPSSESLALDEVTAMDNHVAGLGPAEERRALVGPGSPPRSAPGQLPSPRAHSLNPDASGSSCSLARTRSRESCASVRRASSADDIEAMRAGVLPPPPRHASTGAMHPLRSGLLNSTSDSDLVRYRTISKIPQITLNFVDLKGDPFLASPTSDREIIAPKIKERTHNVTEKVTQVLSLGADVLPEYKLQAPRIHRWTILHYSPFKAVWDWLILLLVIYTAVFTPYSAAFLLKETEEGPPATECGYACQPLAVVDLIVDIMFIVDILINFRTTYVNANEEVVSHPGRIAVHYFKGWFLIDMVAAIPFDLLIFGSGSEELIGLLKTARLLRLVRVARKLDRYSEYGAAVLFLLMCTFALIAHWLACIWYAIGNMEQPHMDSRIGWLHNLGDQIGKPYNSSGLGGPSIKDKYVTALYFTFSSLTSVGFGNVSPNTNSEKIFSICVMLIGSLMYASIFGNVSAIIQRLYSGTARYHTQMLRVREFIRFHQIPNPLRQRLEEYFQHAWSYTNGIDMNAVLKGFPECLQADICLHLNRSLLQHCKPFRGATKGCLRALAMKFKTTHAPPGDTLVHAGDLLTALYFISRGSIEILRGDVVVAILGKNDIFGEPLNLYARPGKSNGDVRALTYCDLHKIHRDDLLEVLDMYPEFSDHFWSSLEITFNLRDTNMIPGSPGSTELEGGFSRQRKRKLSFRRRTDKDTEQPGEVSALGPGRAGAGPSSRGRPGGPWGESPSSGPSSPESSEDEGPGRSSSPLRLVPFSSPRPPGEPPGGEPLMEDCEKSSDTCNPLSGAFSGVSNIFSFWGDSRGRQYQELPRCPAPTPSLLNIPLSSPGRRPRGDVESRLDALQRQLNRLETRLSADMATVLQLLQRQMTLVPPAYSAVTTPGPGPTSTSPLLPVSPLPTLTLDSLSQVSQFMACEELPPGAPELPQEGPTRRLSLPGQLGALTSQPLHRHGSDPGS
Procedure, shortened: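 Kinetic two-minute fluorescence traces, sampled at 1 s, were collected following thallium stimulus of U2OS cells (1000 per well) that had been cultured overnight at 37 C and loaded with FluxOR II.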

[9] = Caspase-3/7 induction in HepG2 cells by small molecules, qHTS assay (AID 1346978); note: nearly all actives have a fitted effect of over 15% in size; note: potency is the fitted concentration of half-maximal effect
Procedure, shortened: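 Caspase-3/7 induction was measured by Caspase-Glo 3/7 luminescence (30 min, room temperature) after a 17 hr compound exposure of wild-type HepG2 cells seeded at 2,000 per well and pre-incubated 5 hr.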

[10] = target: Cytochrome P450 3A4 (Homo sapiens) (UniProt P08684); test: Cytochrome P450 Family 3 Subfamily A Member 4 (CYP3A4) small molecule antagonists: luciferase reporter qHTS assay (AID 1671201); note: nearly all actives have a fitted effect of over 50% in size; note: potency is the fitted concentration of half-maximal effect; for activity change, negative = inhibition: series mostly up to about 120 µM
Sequence of UniProt P08684 (P08684 whole entry, looked up): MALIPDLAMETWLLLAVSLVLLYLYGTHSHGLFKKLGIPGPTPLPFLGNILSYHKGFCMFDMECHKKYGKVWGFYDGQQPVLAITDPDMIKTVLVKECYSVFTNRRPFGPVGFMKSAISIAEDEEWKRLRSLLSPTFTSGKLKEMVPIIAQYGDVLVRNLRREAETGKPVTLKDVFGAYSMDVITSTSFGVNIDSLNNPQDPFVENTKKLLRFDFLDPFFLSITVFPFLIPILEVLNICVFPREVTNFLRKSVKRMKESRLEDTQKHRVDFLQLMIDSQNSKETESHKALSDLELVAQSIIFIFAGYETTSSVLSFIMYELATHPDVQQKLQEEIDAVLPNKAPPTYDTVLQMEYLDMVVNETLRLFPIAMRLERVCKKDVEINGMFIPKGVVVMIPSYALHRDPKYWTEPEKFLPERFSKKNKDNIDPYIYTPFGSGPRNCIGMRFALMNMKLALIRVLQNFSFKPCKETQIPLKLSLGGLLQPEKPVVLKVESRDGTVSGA
Procedure, shortened: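 Proluciferin-to-luciferin conversion by CYP3A4, NADPH-regenerated, 1 h RT; luminescence read as RLU. Ketoconazole as control.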

[11] = Caspase-3/7 induction in CHO-K1 cells by small molecules, qHTS assay (AID 1346980); note: nearly all actives have a fitted effect of over 15% in size; note: potency is the fitted concentration of half-maximal effect
Procedure, shortened: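 Luminescent Caspase-Glo 3/7 read (30min, room temperature) quantified apoptosis induction. Cells were wild-type CHO-K1, treated with compound for 17hr at 37 C and 5% CO2.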
% is set by controls: 0 for no effect and ±100 for the full control effect; tags give direction and shape of the fitted curve.

For `Nc1cc(Cl)c(O)c(Cl)c1`, the Potency [1] was inconclusive: 68.6 µM [cytotoxic] and the Potency [2] was inconclusive: 68.6 µM [activator, single point].

With `CN(C)c1ccc(/C=C/c2ccc([N+](=O)[O-])cc2)cc1` the Potency [1] was inconclusive: 2.19 µM [rising, partial curve, poor fit], the Potency [2] was inconclusive: 0.778 µM [activator, partial curve] and the Potency [3] was inconclusive: 0.805 µM [inhibitor, full curve, poor fit]. The activity change, negative = inhibition [4] was inactive: 15.9% [at 10.5 µM] and the Potency [5] was inconclusive: 0.286 µM [inhibitor, full curve, poor fit].

With `OCCN(CCO)c1ccccc1` the Potency [1] was inconclusive: 34.4 µM [rising, partial curve, poor fit], the Potency [6] was “inactive” and the Potency [4] was inconclusive: 89.4 µM [inhibitor, single point]. For the same compound, the Potency [7] was inconclusive: 39.9 µM [inhibitor, partial curve, poor fit].

In the case of `O=C(O)c1ccccc1OP(=O)(O)O`, the Potency [1] is reported as “inactive”, the Potency [6] is reported as “inactive” and the Potency [3] is reported as inconclusive: 30.9 µM [inhibitor, partial curve, poor fit].

For `CN1CCN2c3ccccc3Cc3ccccc3C2C1` (stereo unspecified), the Potency [1] was “inactive” and the Potency [2] was inconclusive: 33.5 µM [activator, single point].

With `O=C(O)c1ccc(Cl)c(Cl)c1` the Potency [1] was inconclusive: 24.3 µM [rising, partial curve, poor fit], the Potency [6] was “inactive” and the Potency [4] was inconclusive: 79.7 µM [inhibitor, single point]. The Potency [7] was “inactive”, the Potency [5] was inconclusive: 71 µM [inhibitor, partial curve] and the Potency [8] was “inactive”.

For `CCCC(C)c1ccccc1O` (stereo unspecified), the Potency [9] was inconclusive: 68.6 µM [activator], the Potency [4] was “inactive” and the Potency [5] was inconclusive: 35.6 µM [inhibitor, partial curve].

For `CCN(CC)CCNC(=O)c1cc(S(C)(=O)=O)ccc1OC`, the Potency [1] was inconclusive: 29.8 µM [rising, single point], the Potency [6] was “inactive” and the Potency [3] was active: 12.3 µM. The Potency [10] was “inactive”.

With `Cc1cc(N)c2cc(NC(=O)Nc3ccc4nc(C)cc(N)c4c3)ccc2n1` the Potency [1] was “inactive”.

In the case of `C[Si](C)(C)O[Si](C)(C)C`, the Potency [1] is reported as inconclusive: 76.5 µM [cytotoxic, single point], the Potency [6] is reported as inconclusive: 27.3 µM [rising, single point] and the Potency [4] is reported as inconclusive: 7.92 µM [inhibitor, single point]. The Potency [7] was “inactive” and the Potency [5] was inconclusive: 63.3 µM [inhibitor, partial curve].

For `O=C(CC(=O)C(F)(F)F)c1ccccc1`, the Potency [1] was inconclusive: 69.6 µM [cytotoxic, single point], the Potency [2] was active: 55.3 µM and the Potency [3] was inconclusive: 80.9 µM [inhibitor, partial curve, poor fit]. For the same compound, the Potency [5] was inconclusive: 36.1 µM [inhibitor, partial curve].

In the case of `O=[N+]([O-])c1ccccc1CCO`, the Potency [1] is reported as “inactive”.

With `NC(=O)c1ncn([C@@H]2O[C@H](CO)[C@@H](O)[C@H]2O)n1` the Potency [1] was inconclusive: 72.3 µM [cytotoxic, single point] and the Potency [2] was active: 9.1 µM.

With `NS(=O)(=O)c1cc(C(=O)NN2C[C@H]3[C@H]4CCC(C4)[C@H]3C2)ccc1Cl` the Potency [1] was inconclusive: 29.8 µM [cytotoxic, partial curve, poor fit] and the Potency [2] was “inactive”.

In the case of `CO[C@@H]1[C@H](OC(=O)/C=C/C=C/C=C/C=C/C(=O)O)CC[C@]2(CO2)[C@H]1[C@@]1(C)O[C@@H]1CC=C(C)C`, the Potency [1] is reported as inconclusive: 54.5 µM [cytotoxic, partial curve], the Potency [6] is reported as “inactive” and the Potency [3] is reported as inconclusive: 63.3 µM [inhibitor, partial curve]. For the same compound, the Potency [4] was inconclusive: 79.6 µM [inhibitor], the Potency [7] was inconclusive: 63.3 µM [inhibitor, partial curve] and the Potency [5] was inconclusive: 71 µM [inhibitor]. For the same compound, the Potency [10] was inconclusive: 39.9 µM [inhibitor, partial curve].

In the case of `CC(=O)NC(Cc1ccccc1)C(=O)O` (stereo unspecified), the Potency [9] is reported as “inactive”, the Potency [3] is reported as inconclusive: 38.9 µM [inhibitor, single point] and the Potency [7] is reported as “inactive”.

For `Oc1cccc(O)c1`, the Potency [9] was active: 42 µM, the Potency [2] was active: 47.1 µM and inactive and the Potency [3] was “inactive”. The Potency [4] was inconclusive: 0.502 µM [inhibitor, partial curve], the Potency [7] was “inactive” and the Potency [5] was “inactive and inconclusive: 38.9 µM [inhibitor, single point]”.

In the case of `COC(=O)c1cc(S(N)(=O)=O)ccc1OC`, the Potency [1] is reported as “inactive”.

With `Clc1ccc(C(Cn2ccnc2)OCc2ccc(Sc3ccccc3)cc2)c(Cl)c1` (stereo unspecified) the Potency [1] was inconclusive: 33.5 µM [cytotoxic, single point].

For `O=[N+]([O-])c1ccc2c(c1)Cc1ccccc1-2`, the Potency [1] was inconclusive: 76.9 µM [cytotoxic, single point] and inconclusive: 68.6 µM [cytotoxic, single point], the Potency [11] was inconclusive: 61.1 µM [activator, partial curve, poor fit] and the Potency [3] was inconclusive: 35.5 µM [inhibitor, partial curve]. For the same compound, the Potency [7] was inconclusive: 35.5 µM [inhibitor, partial curve] and inconclusive: 28.3 µM [inhibitor] and the Potency [5] was active: 2 µM and active: 8.94 µM.

With `CC(=O)Oc1ccccc1C(=O)Nc1ncc([N+](=O)[O-])s1` the Potency [9] was “inactive”, the Potency [6] was active: 15.7 µM and active: 21.1 µM and the Potency [2] was active: 11.1 µM and active: 2.11 µM.

With `COc1cc(C(C)=O)ccc1OCCCN1CCC(c2noc3cc(F)ccc23)CC1` the Potency [1] was inconclusive: 33.5 µM [cytotoxic], the Potency [6] was inconclusive: 33.5 µM [cytotoxic, single point] and the Potency [2] was inconclusive: 33.5 µM [activator, single point]. For the same compound, the Potency [7] was inconclusive: 17.4 µM [inhibitor, partial curve, poor fit].

For `CC(C)(C)C1(CCc2ccc(Cl)cc2)CO1` (stereo unspecified), the Potency [1] was “inactive”, the Potency [2] was inconclusive: 34.4 µM [activator, partial curve] and the Potency [3] was inconclusive: 39.9 µM [inhibitor, partial curve]. For the same compound, the Potency [7] was active: 17.8 µM.

For `COc1cc2nc(N3CCN(C(=O)c4ccco4)CC3)nc(N)c2cc1OC`, the Potency [1] was inconclusive: 16.4 µM [cytotoxic, single point], the caspase-3/7 activation [11] was inactive: 0.614% [at 19 µM] and the activity change, negative = inhibition [4] was inactive: 16.3% [at 23.6 µM].

For `O=NN(CCCl)C(=O)NCCCl`, the Potency [1] was “inactive”.

In the case of `CCCC(=O)OC(C)(C)Cc1ccccc1`, the Potency [1] is reported as “inactive”.

In the case of `CCCCCc1ccc(N)cc1`, the Potency [1] is reported as inconclusive: 77 µM [cytotoxic, single point] and the Potency [2] is reported as inconclusive: 30.6 µM [activator, partial curve].

In the case of `Nc1ccc2cc(S(=O)(=O)O)ccc2c1`, the Potency [1] is reported as “inactive”, the Potency [2] is reported as inconclusive: 7.7 µM [activator, partial curve] and the Potency [3] is reported as active: 39.9 µM. For the same compound, the Potency [7] was active: 50.2 µM and the Potency [5] was inconclusive: 63.3 µM [inhibitor, partial curve].

With `Cc1ccc2c(c1)C(=O)c1ccccc1C2=O` the Potency [1] was “inactive” and the Potency [2] was active: 15.3 µM.

For `Cc1ccc(C)c(O)c1C`, the Potency [1] was “inactive”, the Potency [6] was “inactive” and the Potency [4] was inconclusive: 79.3 µM [inhibitor, single point]. For the same compound, the Potency [7] was inconclusive: 70.7 µM [inhibitor, partial curve] and inconclusive: 35.6 µM [inhibitor, partial curve, poor fit].
